The other results are listed elsewhere or left out.
Columns and labels:
[1] = system: HSkMC (human skeletal muscle cells); assay: cytotoxicity call (relative viability < 0.9); conditions: 10 µM
[2] = system: HepG2; assay: cytotoxicity call (relative viability < 0.9); conditions: 10 µM
[3] = system: S. aureus RN4220; assay: growth inhibition call (relative growth <= 0.2); conditions: 50 µM

Compound | cytotoxicity call [1] | cytotoxicity call [2] | growth inhibition call [3]
C[C@@H]1CCCCO[C@@H](CN(C)C(=O)Nc2ccc(C(F)(F)F)cc2)[C@@H](C)CN([C@H](C)CO)C(=O)c2cc(NS(=O)(=O)c3ccccc3)ccc2O1 | inactive | active | inactive
C[C@H]1CN([C@@H](C)CO)C(=O)c2cc(NC(=O)Nc3ccc(C(F)(F)F)cc3)ccc2O[C@H]1CN(C)C(=O)Nc1ccc(F)cc1 | inactive | inactive | inactive
Cc1ccc(S(=O)(=O)Nc2ccc3c(c2)CC(=O)N([C@@H](C)CO)C[C@H](C)[C@H](CN(C)CC2CC2)O3)cc1 | inactive | inactive | inactive
C[C@H](CO)N1C[C@H](C)[C@@H](CN(C)C(=O)Nc2ccc(F)cc2)Oc2ccc(NC(=O)Nc3cccc4ccccc34)cc2CC1=O | inactive | inactive | inactive
COc1ccc(S(=O)(=O)N(C)C[C@@H]2Oc3c(cccc3N(C)C)C(=O)N([C@H](C)CO)C[C@@H]2C)cc1 | inactive | inactive | inactive
CCCC(=O)Nc1ncnc2c1ncn2C1OC2COP(=O)([O-])OC2C1OC(=O)CCC.[Na+] (stereo unspecified) | inactive | inactive | inactive
C[C@H]1CN([C@@H](C)CO)C(=O)CCCn2cc(nn2)CO[C@@H]1CN(C)C(=O)c1cc(-c2ccccc2)on1 | inactive | inactive | inactive
COc1ccc(NC(=O)Nc2ccc3c(c2)C(=O)N([C@H](C)CO)C[C@H](C)[C@@H](CN(C)Cc2ccc(Oc4ccccc4)cc2)O3)cc1 | inactive | active | inactive
O=C(C[C@@H]1CC[C@H]2[C@@H](COC[C@@H](O)CN2S(=O)(=O)c2ccccc2)O1)NCc1ccc2c(c1)OCO2 | inactive | inactive | inactive
C[C@@H]1CN([C@@H](C)CO)C(=O)c2cc(NS(=O)(=O)c3cccs3)ccc2O[C@@H](C)CCCCO[C@H]1CN(C)C(=O)CCC(F)(F)F | inactive | inactive | inactive
COc1ccccc1CCCCN | inactive | inactive | inactive
O=C(C[C@@H]1CC[C@@H](NC(=O)CN2CCOCC2)[C@@H](CO)O1)NCc1cccc(F)c1 | inactive | inactive | inactive
C[C@@H]1CCCCO[C@H](CN(C)C(=O)Nc2ccc3c(c2)OCO3)[C@H](C)CN([C@@H](C)CO)C(=O)c2cc(NS(=O)(=O)c3cccs3)ccc2O1 | inactive | inactive | inactive
C[C@H](CO)N1C[C@H](C)[C@@H](CN(C)S(C)(=O)=O)Oc2ccc(NC(=O)Nc3ccc(C(F)(F)F)cc3)cc2C1=O | inactive | inactive | inactive
COc1ccc(S(=O)(=O)N(C)C[C@@H]2Oc3cc(C4=CCCC4)ccc3S(=O)(=O)N([C@H](C)CO)C[C@@H]2C)cc1 | inactive | inactive | inactive
C[C@@H]1CN([C@H](C)CO)C(=O)c2cc(NC(=O)c3ccncc3)ccc2O[C@@H](C)CCCCO[C@@H]1CN(C)S(=O)(=O)c1ccc(Cl)cc1 | inactive | inactive | inactive

Compound | cytotoxicity call [1] | cytotoxicity call [2] | growth inhibition call [3]
CN1C(=O)c2cc(NC(=O)Cc3cccs3)ccc2OC[C@H]2O[C@@H](CC(=O)NCCCN3CCOCC3)CC[C@@H]21 | inactive | inactive | inactive
C[C@H]1CN([C@@H](C)CO)S(=O)(=O)c2ccc(Br)cc2O[C@H]1CN(C)C(=O)Cc1ccccc1 | inactive | active | inactive
N#CCCn1c(CC(N)=O)nc2ccccc21 | inactive | inactive | inactive
C[C@H](CO)N1C[C@H](C)[C@H](CN(C)Cc2ccc(-c3ccccc3)cc2)Oc2ccc(NC(=O)Nc3cccc4ccccc34)cc2CC1=O | inactive | inactive | inactive
COC(=O)c1nnc(N)[nH]1 | inactive | inactive | inactive
CC(C)[Si](OCC[C@H]1O[C@]2(C(=O)N(Cc3ccccc3)c3ccccc32)[C@@H](C)[C@@H]1[Si](C)(C)O)(C(C)C)C(C)C | inactive | inactive | inactive
CCOC[C@]12Cc3cnn(-c4ccc(F)cc4)c3C=C1CCN(S(=O)(=O)c1ccc(C(F)(F)F)cc1)C2 | inactive | inactive | inactive
C[C@@H]1CN([C@H](C)CO)C(=O)c2cccc(NC(=O)c3cnccn3)c2O[C@@H]1CN(C)S(=O)(=O)c1ccccc1 | inactive | inactive | inactive
COc1ccccc1CNC(=O)C[C@@H]1C[C@@H]2c3cc(NS(=O)(=O)c4ccc(F)cc4)ccc3O[C@@H]2[C@@H](CO)O1 | inactive | inactive | inactive
CC=Cc1ccc2n(c1=O)C[C@H]1[C@H](CO)[C@@H](C(=O)NCCc3cn(C)cn3)N(C(=O)CC)[C@@H]21 | inactive | inactive | inactive
Br.Cc1ccc(Sc2ccccc2N2CCNCC2)c(C)c1 | inactive | active | inactive
COc1ccc(S(=O)(=O)N(C)C[C@H]2Oc3c(NS(=O)(=O)c4cccs4)cccc3C(=O)N([C@@H](C)CO)C[C@@H]2C)cc1 | inactive | inactive | inactive
CO[C@H]1CN(C)C(=O)c2ccc(NC(=O)C3CC3)cc2OC[C@@H](C)N(C(=O)Cc2ccccn2)C[C@H]1C | inactive | inactive | inactive
C[C@@H]1CCCCO[C@H](CN(C)S(=O)(=O)c2cccs2)[C@@H](C)CN([C@@H](C)CO)C(=O)c2cc(NC(=O)NC3CCCCC3)ccc2O1 | inactive | inactive | inactive
C[C@H](CO)N1C[C@H](C)[C@H](CN(C)Cc2ccc(C(=O)O)cc2)Oc2ccc(NC(=O)Nc3cccc4ccccc34)cc2CC1=O | inactive | inactive | inactive
O=C(C[C@@H]1C[C@H]2c3cc(NC(=O)Nc4ccccc4F)ccc3O[C@H]2[C@@H](CO)O1)NCc1ccc(Oc2ccccc2)cc1 | inactive | inactive | inactive

Source: the antibiotic and cytotoxicity screens of Wong et al. (2023)
